Assay results: the supplement of paper PMC11417369
The other results are listed elsewhere or left out.

What follows are sequences tested on PfHDP1 homeodomain (GST-tagged) (assay: gcPBM binding intensity (ln(normalized median fluorescence intensity)); higher = stronger DNA binding).
Outline: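 Plasmodium falciparum DNA-binding domains carrying a GST tag were expressed in E. coli and applied for 1 h, at about 25 μg on average, to an Agilent 4 × 180k array. The array held primer-extended double-stranded 36-bp intergenic genomic probes together with negative controls, and binding took place in 1× PBS with 1% milk, 0.2 mg/ml BSA, 0.5% salmon testes DNA and 0.03% Triton X-100. An Alexa488 anti-GST antibody detected bound protein, and the array was scanned at 488 nm. Binding intensity is taken as the highest Masliner-normalised natural-log median intensity across replicate spots of either probe orientation.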

| Sequence | gcPBM binding intensity (ln) |
| --- | --- |
| TTTTAATTTATTAATTGTACATGTATTTTAAGATTA [XGTACX_site8417] | 6.27 |
| TAAACATTTGGCTGATGTACTTGCTACCTTAAATCA [XGTACX_site5514] | 5.93 |
| ATTTTTGTGTATTAATGTACTTTATGCATATTTGAC [XGTACX_site3353] | 7.62 |
| AAAAATAGAATAAATACACACCCGTGTAACGGATTT [CACACA_site3372] | 5.91 |
| AATAATATATTTAGGGGTACATAATAATATATTTTA [XGTACX_site8366] | 6.64 |
| TTTTAAATATGAACATGTACATGTAAATTTACATGT [XGTACX_site4573] | 6.66 |
| TTTATAAAAATGAACACACACATATAAATATAAATA [CACACA_site7607] | 6.72 |
| TTACGATCATCAATATGTACATATATATATATATAT [XGTACX_site4301] | 9.43 |
| ATTTTTTTTTTTATAGTGGATCCACATTTGCCATTT [CACACA_negctrl_site1106] | 6.4 |
| AATATTTATATTTACACACACATAATACATCTATGT [CACACA_site4187] | 6.73 |
| TATAAAAAAATATTATAATATATATATATATATATA [XGTACX_negctrl_site41] | 9.16 |
| GATAAATTAAGACACACACACATATATTTATTTATA [CACACA_site7789] | 6.74 |
| AAAAAAGAACGCATAGTGCATATCTAAAAGATTTTT | 7.88 |
| TAGTATTAGATATATACACACATATATACCTATAGA [CACACA_site7083] | 6.5 |
| TTGGTCTTTTAAAAAAGTACAAAAAAAAAAAAAAAA [XGTACX_site1665] | 6.08 |
| TATAAATAAAGATATACACACATATAAATATTTTTC [CACACA_site7798] | 6.4 |
| TTAACCGGTTTATGGGTGCACATTCTTCTTAAATAA [GTGCAC_site9928] | 8.3 |
| CCTAGAAAAGTATATACACACGCGCAAAATAAAATT [CACACA_site1413] | 7.6 |
| AAAAAAAAGTTAAGCACACACATGAATAAATAATAC [CACACA_site840] | 6.94 |
| TATATATATATATATACACACATATATACCTATATA [CACACA_site6085] | 9.41 |
| CATGTTCATCAGAACGCACACATAATGGTTTACTTA [CACACA_site898] | 6.81 |
| GTGTATATGTATATATGTACATAAATTTTTTTTTTT [XGTACX_site7083] | 6.23 |

| Sequence | gcPBM binding intensity (ln) |
| --- | --- |
| AGTAACTAATTAAATGCATGTCGATATATATTATAT [TGCATGCA_site1038] | 6.5 |
| ACTTATATAAAACATTAACACACAAAGAAAAAAAAT [CACACA_site8529] | 7.1 |
| GATACACCAAATAACTGTACGCACGTGTAATATTAA [XGTACX_site3441] | 7.32 |
| AAGAAAAAAAAAATTACACACTGCGCACATACACAA [CACACA_site6721] | 7.88 |
| AATAATAATACTAATCGTACGCATATTTTTCAAACC [XGTACX_site8055] | 6.46 |
| ATTAAATACATTAACACACACACAAATATATACATA [CACACA_site2881] | 6.82 |
| GGGAATATAAGTACACGATAATATGTGATAAGGTCT [CACACA_negctrl_site1502] | 7 |
| TTTTATTTTTATTATACACACGCTTAATAAATGCAT [CACACA_site1751] | 7.02 |
| TGTATAAAAGTTTATACACACATTTGATATATTTCA [CACACA_site6606] | 6.58 |
| TATAAAAAAAACAAAAAAAAAAAAAAACAAAAAAAA [TGCATGCA_negctrl_site514] | 5.97 |
| TTTTTTTGTTGTTGTTGTACGATATTTTCCTTATCA [XGTACX_site2375] | 6.98 |
| GGGGGGATGAGATATTGTACTTTTTAGGAAAGTGTA [XGTACX_site2835] | 8.16 |
| AAAGATAAAATATTATGTACATATATATATATATAT [XGTACX_site5079] | 9.28 |
| CATTTAACATAAATTAAACACACAATATAATACATT [CACACA_site8333] | 6.6 |
| GATCAAAATTATAGAAGTACTTTATATAAATAAAAT [XGTACX_site8161] | 6.41 |
| TCTATAAAATATAAAAGTACGTATCAATAATTAAAA [XGTACX_site8469] | 6.59 |
| TCATAAATACATTTTGCATGTAAAATATAGAATACA [TGCATGCA_site755] | 7.05 |
| TATTTTATAAATTAATGTACATAAATTATATCTACT [XGTACX_site3625] | 6.16 |
| ATTACGATAGAGAAATGTACATATATATATGTAAGT [XGTACX_site1200] | 6.61 |
| ATCCCCATAAAAAATACACACAAATATTTATACATA [CACACA_site1001] | 6.79 |
| AAGTAAAAAAAAAAAAGTACATGTTTATATAAATAT [XGTACX_site4741] | 6.37 |
| ATAGAATCTGGTAGCTGTACGAGTCGTAGAGTGTAG [XGTACX_site2016] | 6.59 |

| Sequence | gcPBM binding intensity (ln) |
| --- | --- |
| ATATATTAAAAGGATTAGGAAAAAATATGATTTATC [TGCATGCA_negctrl_site405] | 6.24 |
| ATAAATTAACATTAAAGTACATTTTAATAAATATTA [XGTACX_site3647] | 5.78 |
| ATACATATATATAATACACACATAAATGTAACATTT [CACACA_site3518] | 7.02 |
| CCATAAAACTATAATACACACATATAGATTAACATA [CACACA_site7849] | 6.54 |
| AAAATTGGTGAAAATGAAAATATGATTATATGTATA [XGTACX_negctrl_site505] | 6.29 |
| TGATAAGAAAAAGACTTTTCCTTCTTACTTTCTATG [CACACA_negctrl_site782] | 5.83 |
| AATAATGTTTTTATATCACACACAAATATTAAATGA [CACACA_site8074] | 6.39 |
| CAAAATAAATAATTTGGTACACATAAAAAAAAAAAA [XGTACX_site8380] | 6.26 |
| TGCTGTATATTTTTCTGTACACATTTATATATTCCA [XGTACX_site6244] | 6.65 |
| TTTTTTTTTCTTCTTTTCAAATTTAAGAAATTATAA [CACACA_negctrl_site18] | 5.91 |
| AAAGGGAATTATGGCTGTACGCATTTTATAAATAGC [XGTACX_site5878] | 6.21 |
| TTGTTATTATATTACGCATGCATCATTTATTTGCAC [TGCATGCA_site525] | 7.81 |
| AAGAATAAGAAGAAGGATCCCCTTCAAAAAAAAAAA [TGCATGCA_negctrl_site525] | 5.87 |
| ATGAAGAATTTATATTGTACCCATTTTTATGTAAAT [XGTACX_site2528] | 6.55 |
| AAAAAAAAAACATACACACATACATACATATATATT [CACACA_site949] | 6.49 |
| CGAAAAAGTGATATAGTGCAAAATTTTCATTTCTCT | 9 |
| ATATGTATGTATAATCGTACAAAATTTGGCGATCTT [XGTACX_site8698] | 6.21 |
| TTTATATGTATTAATTGTACACATATAATGTGTTTT [XGTACX_site3064] | 6.59 |
| TTTTTTTTAAAACTATGTACGTAAAAATTGTAGTTT [XGTACX_site2302] | 6.6 |
| GATATAATTATGTGTACACAATTTTTTTTTTTTTTT [CACACA_site4501] | 6.77 |
| AAATAAAGGAAATAAAAAGAAACCAATTTCGAATAT [CACACA_negctrl_site953] | 6.46 |
| AGAACTTTTAATGGATGTACAGTTATTTTATTATTT [XGTACX_site6226] | 6.12 |

| Sequence | gcPBM binding intensity (ln) |
| --- | --- |
| ATATAGTAAATTGGTAGTACATAAAATGATTTTATG [XGTACX_site4143] | 6.38 |
| AACAGATAAAAGGGTACACACATATATACAAGTACA [CACACA_site7959] | 6.45 |
| TATATAGATATGATAGTGCATTTTTAGAAAACATAA [GTGCAC_site9962] | 7.95 |
| TTATGTAGCTAGCTATAAACTTTTTTTTATTTAAAA [CACACA_negctrl_site1297] | 5.87 |
| ATTATTATTAAATACACACACATACCTCCATGTTAG [CACACA_site3430] | 6.94 |
| ATATATATATATATATGTACATACTATACAATAATT [XGTACX_site3546] | 9.34 |
| ATGCTTTTATGCACACGTACAAAAATATTATATAAT [XGTACX_site5589] | 10.9 |
| ATAATTTTATCATATATATATATATATAAATACTTA [CACACA_negctrl_site743] | 6.65 |
| AAAAATTGAATTTTTTTTTTTTTTTTGAGAAGGAAA [CACACA_negctrl_site1196] | 6.45 |
| AATAATAAAGTGAACACACACATATAATATATATAT [CACACA_site4143] | 8.07 |
| ATAATTAAAATGCTCACACACATAAAAAAAAATTAA [CACACA_site2149] | 8.24 |
| CAAACAAACGAACACACACACACACGCAAAAATGAT [CACACA_site7194] | 6.9 |
| AATATTTTTGTCGTTAGTACATAAAAAATAATAATA [XGTACX_site3074] | 6.1 |
| GAAATTATTATATAAACACACATTTATTTTATTTTA [CACACA_site1957] | 6.24 |
| GTATTATACCATAATGCATGTTAACTTCAAAAGAAA [TGCATGCA_site839] | 6.5 |
| TAATATATTGTAGATGCATGCATTAACTATTACAAA [TGCATGCA_site190] | 6.51 |
| CGTATAAATAAATACACACACATATAAATATGTAAA [CACACA_site6236] | 6.54 |
| TATCAATGGAAAATATATATTTGTATATATGTAATA [XGTACX_negctrl_site257] | 6.53 |
| GGATATATTTTATGTACACACATATATAACGGATAT [CACACA_site4847] | 6.72 |
| TTTTAAAAAAATAAATAAATAGAAAAAAAAAATAAA [TGCATGCA_negctrl_site579] | 6.27 |
| TATTATGACTTAAGTTGTACTGTTGAAAGAAGAAAA [XGTACX_site2985] | 6.67 |
| AAAAGTTATAGACACACACACATATAAATATAGATT [CACACA_site6617] | 6.64 |
